In patent US12116397B2, “IL-IR-I binding polypeptide” (Swedish Orphan Biovitrum AB (publ), priority 2017, dated 2024):

Key:
hIL-1R-I = target: T1, hIL-1R-I (Homo sapiens, UniProt P14778); assay: Biacore affinity/kinetic analysis of His6-tagged Z variants, human IL-1R-I; assay type: binding; details: His6-Z polypeptides binding to human IL-1R-I, Biacore, Table 19; for Kd: read-out: KD
T1 construct: purchased R&D Systems 269-1R/CF
T1 sequence (P14778 18-569): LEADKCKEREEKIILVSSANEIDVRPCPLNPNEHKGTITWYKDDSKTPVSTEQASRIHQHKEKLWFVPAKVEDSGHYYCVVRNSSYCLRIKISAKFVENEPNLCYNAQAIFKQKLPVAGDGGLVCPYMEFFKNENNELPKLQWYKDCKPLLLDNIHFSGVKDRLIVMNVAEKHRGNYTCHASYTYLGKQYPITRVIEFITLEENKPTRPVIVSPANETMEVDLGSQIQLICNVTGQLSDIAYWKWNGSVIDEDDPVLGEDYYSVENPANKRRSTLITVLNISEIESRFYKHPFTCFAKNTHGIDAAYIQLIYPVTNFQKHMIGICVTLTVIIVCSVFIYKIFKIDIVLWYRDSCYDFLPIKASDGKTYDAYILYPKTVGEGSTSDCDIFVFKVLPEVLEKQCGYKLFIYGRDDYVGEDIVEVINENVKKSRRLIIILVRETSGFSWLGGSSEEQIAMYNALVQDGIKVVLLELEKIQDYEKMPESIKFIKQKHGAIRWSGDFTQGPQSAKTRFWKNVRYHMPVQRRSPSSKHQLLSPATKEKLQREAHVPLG
Procedure: Affinities (KD) for human and cynomolgus IL-1R-I were determined for His6-tagged Z variants using a Biacore 2000 instrument (GE Healthcare). hIL-1R-I or cIL-1R-I-His6 was immobilized on the carboxylated dextran layer in different flow cells of a CM5 chip (GE Healthcare, cat. no. BR100012). The immobilization was performed using amine coupling chemistry according to the manufacturer's protocol. Acetate pH 4.5 (GE Healthcare, cat. no. BR100350) was used for ligand dilution and HBS-EP (GE Healthcare, cat. no. BR100188) was used as running buffer. One flow cell surface on the chip was activated and deactivated for use as blank during analyte injections. In the kinetic experiment, HBS-EP was used as running buffer, the flow rate was 50 μl/min and the temperature was 25° C. The analytes, i.e. the Z variants, were each diluted in HBS-EP buffer to final concentrations of 40 nM and 10 nM, and were injected over the target chip surfaces for 2 min, followed by dissociation in running buffer for 8 min. Kinetic constants were calculated from the obtained sensorgrams using a 1:1 binding model, in the BiaEvaluation software 4.1 (GE Healthcare).
The kinetic constants (kon and koff) and affinities (KD) for human and cynomolgus IL-1R-I were determined for His6-tagged Z variants using a Biacore 2000 instrument (GE Healthcare). The experiment was run essentially as described in Example 2, using 100, 10 and 1 nM of the Z variants. The analyte injection time was 3 min followed by 15 min dissociation and 2×5 s glycine pH 3.0 (GE Healthcare, cat. no. BR100357), supplemented with 0.5 M NaCl, was used for regeneration of the surfaces between the cycles. Kinetic constants were calculated from the obtained sensorgrams of two or three concentrations of the respective Z variant, using a 1:1 binding model in the BiaEvaluation software 4.1 (GE Healthcare). His6-tagged Z12967 was included in the assay for comparison.
The kinetic constants (kon and koff) and affinities (KD) for human and cynomolgus IL-1R-I were determined for His6-tagged Z variants using a Biacore 2000 instrument (GE Healthcare). The experiment was run essentially as described in Example 5, using 48, 12, 3 and 0.75 nM of the Z variants. The analyte injection time was 3 min followed by 6 min dissociation and 2×5 s glycine pH 3.0, supplemented with 0.5 M NaCl, was used for regeneration of the surfaces between the cycles. Kinetic constants were calculated from the obtained sensorgrams of three or four concentrations of the respective Z variant, using a 1:1 binding model in the BiaEvaluation software 4.1 (GE Healthcare). His6-tagged Z12967 (SEQ ID NO:9), Z16065 (SEQ ID NO:268), Z16163 (SEQ ID NO:359) and Z18557 (SEQ ID NO:1205) were included in the assay for comparison.

[1] = Circular dichroism (CD) spectroscopy analysis, melting temperature and refolding; assay type: physicochemical; details: for Melting temperatures (Tm): His6-tagged Z variants, CD variable temperature measurement, Table 21; for thermo-stability and α-helical content versus Z variants having alanine in position X5: His6-tagged, valine or isoleucine in position X5 of the BM (Example 9)
Procedure: Purified His6-tagged Z variants were diluted to 0.5 mg/ml in PBS. For each diluted Z variant, a CD spectrum at 250-195 nm was obtained at 20° C. In addition, a variable temperature measurement (VTM) was performed to determine the melting temperature (Tm). In the VTM, the absorbance was measured at 221 nm while the temperature was raised from 20 to 90° C., with a temperature slope of 5° C./min. A new CD spectrum was obtained at 20° C. after the heating procedure in order to study the refolding ability of the Z variants. The CD measurements were performed on a Jasco J-810 spectropolarimeter (Jasco Scandinavia AB) using a cell with an optical path length of 1 mm.
CD was analyzed for His6-tagged Z variants, as described in Example 2.

[2] = In vivo pharmacokinetics of IL-1R-I binding fusion proteins in rats; set-up: species or system male Sprague-Dawley rats; details: male rats
Procedure: The IL-1R-I binding fusion proteins PS10534, PS10535, PS10536, PS10537, PS10538 and PS10539 (see Table 22, SEQ ID NO:1646-1651) were evaluated in this study. All six test items were constituted as a solution in 25 mM sodium phosphate and 125 mM sodium chloride, pH 7.0.
The pharmacokinetic properties of the six fusion proteins were investigated in male Sprague-Dawley rats. For each test item, three rats were given an i.v. single dose of 15 mg/kg (2.5 ml/kg) injected in the lateral tail vein and another three rats were given a s.c. single dose of 30 mg/kg (5 ml/kg) injected in the neck region. Blood samples for serum preparation were collected pre dosing and at 5 and 20 min, 1, 4, 8, 24, 48, 72 and 96 hrs post i.v. dosing, or 20 min, 1, 4, 8, 24, 48, 72, 96 and 120 hrs post s.c. dosing.
Determination of fusion protein levels in rat serum samples was performed by enzyme-linked immunosorbent assay (ELISA). The ELISA assay employed the quantitative sandwich enzyme immunoassay technique.
In brief; a goat polyclonal anti-Z antibody recognizing the Z variant domain of the IL-1R-I binding fusion protein (produced in house, Affibody AB) was coated onto a microplate. Unbound polyclonal antibody was washed away and casein was added as blocking agent to reduce unspecific binding to the plastic surface. After removal of unbound casein by a second wash step, standards and samples were pipetted to the wells and any fusion protein present was bound to the immobilized antibody. After washing away any unbound substances, a HRP labeled Swine anti-rabbit antibody (Dako, cat. no. P0399) was added. Following a wash to remove any unbound anti-rabbit HRP reagent, a substrate solution was added to the wells and color developed in proportion to the amount of fusion protein bound in the initial step. The color development was stopped and the intensity of the color was measured.
The pharmacokinetic analysis was based on median serum concentration versus time data from each dose group. The observed maximum concentration (Cmax) and the time to maximum serum concentration (tmax) were taken directly from the bioanalytical data. Other pharmacokinetic parameters, i.e. clearance (CL), apparent clearance following s.c. administration (CL/F), apparent volume of distribution at steady-state (Vss), mean residence time (MRT) and terminal half-life (t1/2z), were estimated by non-compartmental analysis using Phoenix WinNonlin software version 6.3 (Pharsight Corp., USA). Estimation of the terminal slope following i.v. dosing was based on four data points, from 24 to 96 hrs. Estimation of the terminal slope following s.c. dosing was based on five data points, from 24 to 120 hrs. Calculation of the subcutaneous bioavailability (F) was performed using Microsoft Excel.

[3] = intravenous single dose 15 mg/kg
[4] = subcutaneous single dose 30 mg/kg

B1: Z19180: IL-1R-I binding Z variant with valine or isoleucine in position X5 (protein)
chain: AQHDEALEVDAKYAKEVEIIQMEIFHLPNLTRRQYTAFIRKLLDDPSQSSELLSEAKKLNDSQAPKVDYVLAEAKVLANRELDKYGVSDYYKNLINNAKTVEGVKALIDEILAALPYVPG
koff (hIL-1R-I): 0.0031 s⁻¹
kon (hIL-1R-I): 2.2e+07 M⁻¹ s⁻¹
Kd (hIL-1R-I): 0.14 nM
Melting temperatures (Tm) [1]: 58 °C
thermo-stability and α-helical content versus Z variants having alanine in position X5 [1]: not substantially different

B2: Z19182: IL-1R-I binding Z variant with valine or isoleucine in position X5 (protein)
chain: B1 chain with I19A, H26Q
koff (hIL-1R-I): 0.0055 s⁻¹
kon (hIL-1R-I): 2.1e+07 M⁻¹ s⁻¹
Kd (hIL-1R-I): 0.26 nM
Melting temperatures (Tm) [1]: 62 °C
thermo-stability and α-helical content versus Z variants having alanine in position X5 [1]: not substantially different

B3: Z18920: IL-1R-I binding Z variant with valine or isoleucine in position X5 (protein)
chain: B1 chain with V17T, I19E, H26R
koff (hIL-1R-I): 0.0055 s⁻¹
kon (hIL-1R-I): 3.6e+07 M⁻¹ s⁻¹
Kd (hIL-1R-I): 0.15 nM
Melting temperatures (Tm) [1]: 56 °C
thermo-stability and α-helical content versus Z variants having alanine in position X5 [1]: not substantially different

B4: Z19075: IL-1R-I binding Z variant with valine or isoleucine in position X5 (protein)
chain: B1 chain with M22Y, H26G, R33K
koff (hIL-1R-I): 0.0064 s⁻¹
kon (hIL-1R-I): 1.4e+07 M⁻¹ s⁻¹
Kd (hIL-1R-I): 0.45 nM
Melting temperatures (Tm) [1]: 56 °C
thermo-stability and α-helical content versus Z variants having alanine in position X5 [1]: not substantially different

B5: Z19158: IL-1R-I binding Z variant with valine or isoleucine in position X5 (protein)
chain: B1 chain with V17T, I19E, H26A
koff (hIL-1R-I): 0.0044 s⁻¹
kon (hIL-1R-I): 2.7e+07 M⁻¹ s⁻¹
Kd (hIL-1R-I): 0.16 nM
Melting temperatures (Tm) [1]: 55 °C
thermo-stability and α-helical content versus Z variants having alanine in position X5 [1]: not substantially different

B6: Z18769 (protein)
chain: B1 chain with I19E, I20V
koff (hIL-1R-I): 0.0031 s⁻¹
kon (hIL-1R-I): 1.9e+07 M⁻¹ s⁻¹
Kd (hIL-1R-I): 0.16 nM
Melting temperatures (Tm) [1]: 59 °C

B7: Z18770 (protein)
chain: B1 chain with V17T, I19R, I20V, H26S
koff (hIL-1R-I): 0.005 s⁻¹
kon (hIL-1R-I): 3e+07 M⁻¹ s⁻¹
Kd (hIL-1R-I): 0.17 nM
Melting temperatures (Tm) [1]: 59 °C

B8: Z18799 (protein)
chain: B1 chain with I19A, R33K, L43F
koff (hIL-1R-I): 0.0045 s⁻¹
kon (hIL-1R-I): 2.6e+07 M⁻¹ s⁻¹
Kd (hIL-1R-I): 0.18 nM
Melting temperatures (Tm) [1]: 60 °C

B9: Z18866 (protein)
chain: B1 chain with V17I, I19E, R33K
koff (hIL-1R-I): 0.0042 s⁻¹
kon (hIL-1R-I): 3.6e+07 M⁻¹ s⁻¹
Kd (hIL-1R-I): 0.12 nM
Melting temperatures (Tm) [1]: 61 °C

B10: PS10538: Fc fused IL-1R-I binding Z variant (protein)
chain: AEAKYAKELEAIQMEIFHLPNLTRRQYTAFIRKLLDDPSQSSELLSEAKKLSESQAPKASGGGGSGGGGS[sequence of human IgG1 Fc omitted]
modifications: Engineered IL-1R-I binding polypeptide
MRT [2, 3]: 61.6 h
Vss [2, 3]: 0.146 L/kg
t1/2z [2, 3]: 50.4 h
Cmax [2, 4]: 796 nM
F [2, 4]: 47.2%
MRT [2, 4]: 91.7 h
Vz/F [2, 4]: 0.509 L/kg
t1/2z [2, 4]: 59.0 h
tmax [2, 4]: 24 h

B11: PS10539: Fc fused IL-1R-I binding Z variant (protein)
chain: B10 chain with L9T, I12V, H18A
modifications: Engineered IL-1R-I binding polypeptide
MRT [2, 3]: 55.5 h
Vss [2, 3]: 0.113 L/kg
t1/2z [2, 3]: 48.3 h
Cmax [2, 4]: 886 nM
F [2, 4]: 52.2%
MRT [2, 4]: 86.2 h
Vz/F [2, 4]: 0.424 L/kg
t1/2z [2, 4]: 54.3 h
tmax [2, 4]: 24 h

Changes are numbered by the printed parent chain.
